In article PMC4643306:
Results are given in words; binding and its absence hold for the method and conditions named. In cells and extracts the contact can be indirect. Some entries that bind do so weakly or less than the wild type. Where a sequence is shown, tags or fusion partners need not be part of it.

Target: T1, GFP-FLAG-MRE11 (UniProt P49959)
T1 sequence: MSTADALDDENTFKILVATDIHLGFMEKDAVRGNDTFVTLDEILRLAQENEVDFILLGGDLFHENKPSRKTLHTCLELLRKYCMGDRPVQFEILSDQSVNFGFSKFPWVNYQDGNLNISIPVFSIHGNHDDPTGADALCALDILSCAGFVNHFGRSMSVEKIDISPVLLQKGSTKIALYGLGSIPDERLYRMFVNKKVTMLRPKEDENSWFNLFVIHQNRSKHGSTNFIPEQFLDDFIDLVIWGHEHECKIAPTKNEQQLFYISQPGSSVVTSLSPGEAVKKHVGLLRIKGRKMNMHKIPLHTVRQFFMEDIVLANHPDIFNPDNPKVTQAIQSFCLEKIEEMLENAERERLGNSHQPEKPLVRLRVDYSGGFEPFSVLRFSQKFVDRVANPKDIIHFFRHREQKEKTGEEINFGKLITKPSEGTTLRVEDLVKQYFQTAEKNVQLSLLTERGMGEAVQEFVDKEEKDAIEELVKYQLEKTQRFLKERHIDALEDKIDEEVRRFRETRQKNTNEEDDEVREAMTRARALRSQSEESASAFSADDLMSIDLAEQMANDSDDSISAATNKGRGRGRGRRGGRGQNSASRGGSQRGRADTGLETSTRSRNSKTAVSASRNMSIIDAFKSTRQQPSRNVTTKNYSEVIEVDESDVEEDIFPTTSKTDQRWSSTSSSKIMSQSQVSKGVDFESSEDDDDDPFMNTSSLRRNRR
Test: co-IP; immunoprecipitation of GFP-CtIP or GFP-FLAG-MRE11 from 293FT cell extracts, probed for endogenous USP4

binding: binds
B1: endogenous USP4 (enzyme, UniProt Q13107 1-963)
chain: MAEGGGCRERPDAETQKSELGPLMRTTLQRGAQWYLIDSRWFKQWKKYVGFDSWDMYNVGEHNLFPGPIDNSGLFSDPESQTLKEHLIDELDYVLVPTEAWNKLLNWYGCVEGQQPIVRKVVEHGLFVKHCKVEVYLLELKLCENSDPTNVLSCHFSKADTIATIEKEMRKLFNIPAERETRLWNKYMSNTYEQLSKLDNTVQDAGLYQGQVLVIEPQNEDGTWPRQTLQSKSSTAPSRNFTTSPKSSASPYSSVSASLIANGDSTSTCGMHSSGVSRGGSGFSASYNCQEPPSSHIQPGLCGLGNLGNTCFMNSALQCLSNTAPLTDYFLKDEYEAEINRDNPLGMKGEIAEAYAELIKQMWSGRDAHVAPRMFKTQVGRFAPQFSGYQQQDSQELLAFLLDGLHEDLNRVKKKPYLELKDANGRPDAVVAKEAWENHRLRNDSVIVDTFHGLFKSTLVCPECAKVSVTFDPFCYLTLPLPLKKDRVMEVFLVPADPHCRPTQYRVTVPLMGAVSDLCEALSRLSGIAAENMVVADVYNHRFHKIFQMDEGLNHIMPRDDIFVYEVCSTSVDGSECVTLPVYFRERKSRPSSTSSASALYGQPLLLSVPKHKLTLESLYQAVCDRISRYVKQPLPDEFGSSPLEPGACNGSRNSCEGEDEEEMEHQEEGKEQLSETEGSGEDEPGNDPSETTQKKIKGQPCPKRLFTFSLVNSYGTADINSLAADGKLLKLNSRSTLAMDWDSETRRLYYDEQESEAYEKHVSMLQPQKKKKTTVALRDCIELFTTMETLGEHDPWYCPNCKKHQQATKKFDLWSLPKILVVHLKRFSYNRYWRDKLDTVVEFPIRGLNMSEFVCNLSARPYVYDLIAVSNHYGAMGVGHYTAYAKNKLNGKWYYFDDSNVSLASEDQIVTKAAYVLFYQRRDDEFYKTPSLSSSGSSDGGTRPSSSQQGFGDDEACSMDTN
